Measurements published in PubChem BioAssay AID463173 (ICCB-Longwood Screening Facility, Harvard Medical School, 2010).
Screen size: about 52,000 compounds; about 4,300 (8.3%) were called active. Rule as the data show it: active = survival mostly below about 52% (no sharp cut-off); inactive = mostly above about 56%. The list shows a part of the results.

System: DeltatarO mutant
Test: growth inhibition of S. aureus wild type versus tarO mutant, primary screen, teichoic acid synthesis inhibitors, RN4220, OD600 (AID 463173)
Details: OD600, 18 h, active compounds read low, screened at 18.75 µg/mL (by protocol)

SMILES	survival
Cc1cccc(CN2CCc3nc(N4CCN(c5ccccn5)CC4)ncc3C2)c1	inactive: 88%
Cn1c(=O)c2c(n(C)c1=O)=NC1(CCCCC1)ON=2	inactive: 73%
CCCc1cc(=O)n2[nH]c(NCc3ccccc3OC)nc2n1	inactive: 103%
Cc1ccc(S(=O)(=O)N2CCC(c3ccncc3)CC2)c(C)c1	inactive: 128%
CCOC(=O)c1c(C)n(CC)c2cc(Br)c(O)cc12	inactive: 106%
O=C(COc1ccccc1-c1nc(-c2ccccc2)no1)Nc1ccccc1[N+](=O)[O-]	active: 31%
CC(C)CCNC(=O)[C@@H](c1ccccc1)N1Cc2ccccc2C1=O	active: 12%
Cc1cccc(N2C(=O)C3C(C(=O)NC4CC4)C4C=CC3(O4)C2C(=O)NC2CCCC2)c1 (stereo not given)	inactive: 75%
CCOc1ccc(NC(=O)Cn2nnc(C(=O)Nc3ccc(OCC)cc3)c2N)cc1	inactive: 96%
CCc1nn(CC(=O)NC(C)c2ccccc2)c(=O)c2cc3sccc3n12 (stereo not given)	inactive: 88%
CCOC(=O)C1=C(CS(=O)(=O)c2ccc(F)cc2)NC(=O)NC1c1ccc(OCC)c(OC)c1 (stereo not given)	inactive: 119%
Cc1cc(C)cc(OCC(=O)NCC2(N(C)C)CCCCC2)c1	inactive: 105%
Cc1ccc(C)c(N2CCN(c3cc(C)nc4c(-c5ccc(Cl)cc5)c(C)nn34)CC2)c1	inactive: 99%
CCOc1ccc(S(=O)(=O)NCc2ccc3c(c2)OCO3)cc1	inactive: 85%
O=C(NCc1ccccc1Cl)C1CCCN(c2ncnc3onc(-c4ccc(F)cc4)c23)C1 (stereo not given)	inactive: 91%
CC(=O)Nc1ccc(C2Nc3c(C)cc(C)cc3-c3cc(C)nn32)cc1 (stereo not given)	inactive: 161%
Cc1ccc(S(=O)(=O)NCCSc2nnnn2-c2ccc(Cl)c(C(=O)O)c2)cc1	inactive: 138%
COc1cc(OC)c(NS(=O)(=O)c2ccc3c(c2)NC(=O)CCS3)cc1Cl	inactive: 109%
CCOC(=O)c1c(C)oc2nc(C)nc(NCc3ccccc3OCC)c12	inactive: 102%
Cc1cc(NNC(=O)c2ccccc2)nc(NNC(=O)c2ccccc2)n1	inactive: 69%
CCOC(=O)c1ccc(NC(=O)C(Cc2ccccc2)NS(=O)(=O)c2ccc(Br)s2)cc1 (stereo not given)	inactive: 90%
O=C(CS(=O)(=O)c1cccc2nsnc12)NCc1ccc(Cl)cc1	inactive: 129%
COc1ccc(-c2c(C)nn3c4c(cnc23)C(=O)CC(c2ccccc2)C4)cc1 (stereo not given)	inactive: 99%
CC(NC(=O)c1ccc(Nc2nc3ccccc3n3nnnc23)cc1)c1ccccc1 (stereo not given)	inactive: 77%
O=C(N1CCOCC1)N1CCC(NC(=O)C23CC4CC(CC(C4)C2)C3)CC1	inactive: 61%
